From PubChem BioAssay AID875 (National Center for Advancing Translational Sciences (NCATS), 2007)
Where “and” joins values, the source holds several entries; their conditions need not be identical. Identical values can stand only once. The whole screen tested about 75,000 compounds, of which about 35 (0.05%) were called active. Calls come from the whole dose curve; as a rule, active = well fitted inhibition curve with a large enough effect; inconclusive = small, poorly fitted or top-dose-only effect; inactive = no such curve, though single readings can be large or run the other way. This is a selection; strong and weak results do not stand in their true shares. The source holds several records for some structures; these can differ, active in one and inactive in another.

Biological target: Breast cancer type 1 susceptibility protein (Homo sapiens) (UniProt P38398)
Assay: qHTS Assay for Inhibitors of BRCT-Phosphoprotein Interaction (Green Fluorophore);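 for activity change, negative = inhibition: plate controls were peptide without protein for full effect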
Conditions: BRCA1 BRCT-phosphopeptide binding, green fluorescence polarization; series mostly up to 76.9 µM; activity change, negative = inhibition: at the top concentration
Procedure: NIH Molecular Libraries Screening Centers Network [MLSCN]
NIH Chemical Genomics Center [NCGC]
PI Name: Natarajan, Amarnath; University of Texas
A complex of BRCT (C-terminal portion of BRCA1, MW ~35 kDa, His-tagged) and fluorescently labeled pBACH1 phosphorylated 10 aa peptide fragment of BACH1, a helicase implicated in DNA repair, is incubated with library members. Inhibitors of BRCT-pBACH1 binding are detected by a decrease in the fluorescence polarization (FP) of the fluorophore. In order to minimize the effect of fluorescence artifacts and to increase the overall robustness of the screen, the compound library members were incubated in separate reactions with fluorescein labeled probe-protein complexes. Protein and labeled probes were supplied by Dr. Amarnath Natarajan, Department of Pharmacology and Toxicology, University of Texas Medical Branch Galveston, TX.
Assay Buffer: 16mM Na2HPO4, 4 mM NaH2PO4, 150 mM NaCl, 1 mM EDTA, 1 mM DTT, 0.02% NaN3, and 0.01% Tween 20 at pH 7.3.
100 nM labeled decapeptide/250 nM protein in columns 1, 2, 5 - 48. Titration of unlabeled decapeptide control (from 10 mM, then 1:2 dilution in duplicate) pin-transferred to column 2, rows 1 to 16. Column 1 is neutral.
Three uL of reagents were dispensed to 1536-well Greiner black solid-bottom plates. Compounds and controls (23 nL) were transferred
via Kalypsys PinTool. The plates were incubated for 12 min at room temperature, and then read on ViewLux (Perkin-Elmer) High throughput CCD imager using FITC for the fluorescein-labeled decapeptide probe polarization filter sets. During dispense, reagent bottles were kept submerged into 4 deg C water bath and all liquid lines were covered with aluminum foil to minimize probe and protein degradation. All screening operations were performed on a Kalypsys robotic system (Kalypsys, Inc., San Diego, CA) containing one RX-130 and two RX-90 anthropomorphic robotic arms. The timing and order of assay plates passing through the screening system were adjusted such that each compound library plate was assayed against the fluorescein- and rhodamine-labeled assay systems at immediately adjacent time points.
Potency is the fitted concentration of half-maximal effect.

Chain of UniProt P38398 (P38398 whole entry, looked up): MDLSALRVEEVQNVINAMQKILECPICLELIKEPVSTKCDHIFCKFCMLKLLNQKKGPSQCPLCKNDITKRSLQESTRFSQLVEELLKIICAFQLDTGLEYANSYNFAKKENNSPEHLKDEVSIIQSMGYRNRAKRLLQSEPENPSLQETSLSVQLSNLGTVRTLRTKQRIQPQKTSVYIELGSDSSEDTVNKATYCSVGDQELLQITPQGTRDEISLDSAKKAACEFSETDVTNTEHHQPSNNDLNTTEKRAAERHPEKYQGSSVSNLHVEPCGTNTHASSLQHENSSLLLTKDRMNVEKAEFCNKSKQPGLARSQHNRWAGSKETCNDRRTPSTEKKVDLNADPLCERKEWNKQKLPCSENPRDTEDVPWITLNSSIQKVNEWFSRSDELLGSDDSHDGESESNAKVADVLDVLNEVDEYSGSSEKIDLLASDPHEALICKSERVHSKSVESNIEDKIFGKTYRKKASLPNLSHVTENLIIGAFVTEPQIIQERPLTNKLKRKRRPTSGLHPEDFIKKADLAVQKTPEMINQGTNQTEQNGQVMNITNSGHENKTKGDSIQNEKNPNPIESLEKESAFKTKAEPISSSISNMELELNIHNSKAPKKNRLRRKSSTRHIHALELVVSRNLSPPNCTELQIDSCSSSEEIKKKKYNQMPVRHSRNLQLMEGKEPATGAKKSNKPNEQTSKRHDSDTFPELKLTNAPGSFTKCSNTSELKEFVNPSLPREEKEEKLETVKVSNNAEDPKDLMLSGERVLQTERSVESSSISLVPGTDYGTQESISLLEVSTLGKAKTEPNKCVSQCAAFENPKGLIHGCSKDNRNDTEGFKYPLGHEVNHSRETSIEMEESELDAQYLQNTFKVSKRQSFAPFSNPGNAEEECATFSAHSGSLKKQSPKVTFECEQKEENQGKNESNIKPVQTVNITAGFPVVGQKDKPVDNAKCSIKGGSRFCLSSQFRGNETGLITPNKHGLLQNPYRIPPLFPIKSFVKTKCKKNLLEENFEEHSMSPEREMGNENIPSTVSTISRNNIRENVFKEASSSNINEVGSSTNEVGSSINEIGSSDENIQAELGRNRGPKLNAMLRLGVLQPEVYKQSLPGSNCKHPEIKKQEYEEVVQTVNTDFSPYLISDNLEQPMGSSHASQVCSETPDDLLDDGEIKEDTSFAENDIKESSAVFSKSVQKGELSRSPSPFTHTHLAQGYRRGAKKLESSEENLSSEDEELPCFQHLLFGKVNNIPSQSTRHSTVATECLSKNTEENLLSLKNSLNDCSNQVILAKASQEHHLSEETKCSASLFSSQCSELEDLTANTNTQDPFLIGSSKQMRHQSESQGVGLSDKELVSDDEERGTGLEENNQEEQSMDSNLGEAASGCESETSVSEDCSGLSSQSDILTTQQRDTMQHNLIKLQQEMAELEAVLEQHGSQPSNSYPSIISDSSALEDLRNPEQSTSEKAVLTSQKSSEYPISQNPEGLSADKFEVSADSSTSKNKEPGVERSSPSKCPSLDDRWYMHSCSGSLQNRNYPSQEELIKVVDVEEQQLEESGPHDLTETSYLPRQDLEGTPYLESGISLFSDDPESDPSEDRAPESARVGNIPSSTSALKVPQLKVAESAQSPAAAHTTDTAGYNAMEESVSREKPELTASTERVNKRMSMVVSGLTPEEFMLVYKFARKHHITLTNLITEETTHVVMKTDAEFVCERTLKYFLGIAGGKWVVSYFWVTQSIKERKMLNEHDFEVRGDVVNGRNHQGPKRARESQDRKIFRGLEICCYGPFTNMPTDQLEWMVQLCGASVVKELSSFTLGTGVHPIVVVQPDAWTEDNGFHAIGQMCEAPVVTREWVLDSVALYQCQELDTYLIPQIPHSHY

| Structure (SMILES) | activity change, negative = inhibition | Potency |
| --- | --- | --- |
| CN(C)[C@@H]1C(=O)C(C(N)=O)=C(O)[C@]2(O)C(=O)C3=C(O)c4c(O)cccc4[C@@](C)(O)[C@H]3[C@H](O)[C@@H]12 | inactive: 32.1% [at 34.4 µM] |  |
| CN(C)[C@@H]1C(=O)C(C(N)=O)=C(O)[C@@]2(O)C(=O)C3=C(O)c4c(O)cccc4[C@@](C)(O)[C@H]3[C@H](O)[C@@H]12 | inactive: 0.88% |  |
| N#CC1=C(N)Oc2n[nH]c(-c3cccs3)c2C1c1ccco1 (centres undefined) | inactive: 56.1% |  |
| N#C/C(=C\c1ccc(O)c(O)c1)C(N)=S | inactive |  |
| O=c1[nH]c(=O)n(Cc2ccccc2)c(O)c1C=NCCCn1ccnc1 | inactive: 39.4% |  |
| COc1ccc2[nH]cc(C3=CCNCC3)c2c1 | inactive: 44.7% |  |
| CC[n+]1c(-c2ccccc2)c2cc(N)ccc2c2ccc(N)cc21 | inactive: -5.09% |  |
| COc1cc2ccccc2c2cc([N+](=O)[O-])oc12 | inactive: 56% [at 15.4 µM] |  |
| CN(C)c1ccc(/C=C2\CCCN=C2c2cccnc2)cc1 | inactive: 238% |  |
| CN(C)[C@H]1C(=O)C(C(N)=O)=C(O)[C@]2(O)C(=O)C3=C(O)c4c(O)cccc4[C@@](C)(O)[C@H]3C[C@@H]12 | inactive: 0.537% [at 34.4 µM] |  |
| C[n+]1c2cc(N)ccc2cc2ccc(N)cc21 |  | active: 1.26 µM |
| O=C(O)c1ccccc1-c1c2cc(Br)c(=O)cc-2oc2[c]([Hg])c(O)c(Br)cc12 |  | active: 2 µM and active: 794 nM |
| O=C(Cn1ncc2c3ccccc3n(Cc3cccc(Cl)c3)c2c1=O)N1CCC2(CC1)OCCO2 | inactive: 44.2% |  |
| CC1=NCCc2c1[nH]c1cc(O)ccc21 | inactive: -15% [at 3.08 µM] |  |
| CN(N=O)c1ccc(O)c(O)c1 |  | active: 10 µM |
| CCC(=NC1CC1)c1c(O)n(C2CCCCC2)c(=O)[nH]c1=O | inactive: 53.2% |  |
| CN(C)C1C(=O)C(C(N)=O)=C(O)[C@@]2(O)C(=O)C3=C(O)c4c(O)cccc4[C@@](C)(O)C3C[C@@H]12 (some centres undefined) | inactive: 1.08% |  |
| CN(C)C1C(=O)C(C(N)=O)=C(O)[C@@]2(O)C(=O)C3=C(O)c4c(O)cccc4[C@](C)(O)C3C(O)C12 (some centres undefined) | inactive: -0.0095% [at 3.08 µM] |  |
| CN(C)C1C(=O)C(C(N)=O)=C(O)[C@@]2(O)C(=O)C3=C(O)c4c(O)cccc4[C@@](C)(O)C3CC12 (some centres undefined) | inactive: -9.96% [at 3.08 µM] |  |
